Reference: article PMC9911399, “Two distinct binding modes provide the RNA-binding protein RbFox with extraordinary sequence specificity”
Substitutions are numbered along the chain they refer to; changes in the protein carry UniProt numbers. The list shows a part of the results.

T1: RBFOX1 RRM (Homo sapiens, UniProt Q9NWB1 109-208)
T1 sequence: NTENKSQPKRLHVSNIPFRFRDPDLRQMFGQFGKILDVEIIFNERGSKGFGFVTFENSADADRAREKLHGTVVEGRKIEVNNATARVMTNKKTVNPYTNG

B1: GCGUGAU (DNA:RNA)
RNA: GGGAGACCGGAAUUCAGAUUGUCCGCGUGAUUUAAAUCCCGUCGUAGCCACCA
DNA 1: CAATCTGAATTCCGGTCTCCC
DNA 2: TGGTGGCTACGACGGGATT
B2: CAUGACC (DNA:RNA)
RNA: GGGAGACCGGAAUUCAGAUUGUCCCAUGACCUUAAAUCCCGUCGUAGCCACCA
DNA 1: CAATCTGAATTCCGGTCTCCC
DNA 2: TGGTGGCTACGACGGGATT
B3: GGCUUAC (DNA:RNA)
RNA: B1 RNA with C26G, G27C, G29U, U31C
DNA 1: CAATCTGAATTCCGGTCTCCC
DNA 2: TGGTGGCTACGACGGGATT
B4: ACCCGUU (DNA:RNA)
RNA: B1 RNA with G25A, G27C, U28C, A30U
DNA 1: CAATCTGAATTCCGGTCTCCC
DNA 2: TGGTGGCTACGACGGGATT
B5: GUAAUAC (DNA:RNA)
RNA: B1 RNA with C26U, G27A, U28A, G29U, U31C
DNA 1: CAATCTGAATTCCGGTCTCCC
DNA 2: TGGTGGCTACGACGGGATT
B6: AGUUCUA (DNA:RNA)
RNA: B2 RNA with C25A, A26G, G28U, A29C, C30U, C31A
DNA 1: CAATCTGAATTCCGGTCTCCC
DNA 2: TGGTGGCTACGACGGGATT
B7: CACCAGC (DNA:RNA)
RNA: B2 RNA with U27C, G28C, C30G
DNA 1: CAATCTGAATTCCGGTCTCCC
DNA 2: TGGTGGCTACGACGGGATT
B8: AGCGUAU (DNA:RNA)
RNA: B1 RNA with G25A, C26G, G27C, U28G, G29U
DNA 1: CAATCTGAATTCCGGTCTCCC
DNA 2: TGGTGGCTACGACGGGATT
B9: CUCACUG (DNA:RNA)
RNA: B2 RNA with A26U, U27C, G28A, A29C, C30U, C31G
DNA 1: CAATCTGAATTCCGGTCTCCC
DNA 2: TGGTGGCTACGACGGGATT
B10: ACUCGUG (DNA:RNA)
RNA: B1 RNA with G25A, G27U, U28C, A30U, U31G
DNA 1: CAATCTGAATTCCGGTCTCCC
DNA 2: TGGTGGCTACGACGGGATT
B11: ACACCCG (DNA:RNA)
RNA: B2 RNA with C25A, A26C, U27A, G28C, A29C, C31G
DNA 1: CAATCTGAATTCCGGTCTCCC
DNA 2: TGGTGGCTACGACGGGATT
B12: GUUUCAA (DNA:RNA)
RNA: B1 RNA with C26U, G27U, G29C, U31A
DNA 1: CAATCTGAATTCCGGTCTCCC
DNA 2: TGGTGGCTACGACGGGATT
B13: GAUAGGA (DNA:RNA)
RNA: B2 RNA with C25G, G28A, A29G, C30G, C31A
DNA 1: CAATCTGAATTCCGGTCTCCC
DNA 2: TGGTGGCTACGACGGGATT
B14: GCCGCAU (DNA:RNA)
RNA: B1 RNA with G27C, U28G, G29C
DNA 1: CAATCTGAATTCCGGTCTCCC
DNA 2: TGGTGGCTACGACGGGATT
B15: AGGAUCG (DNA:RNA)
RNA: B2 RNA with C25A, A26G, U27G, G28A, A29U, C31G
DNA 1: CAATCTGAATTCCGGTCTCCC
DNA 2: TGGTGGCTACGACGGGATT
B16: GUUUCCA (DNA:RNA)
RNA: B2 RNA with C25G, A26U, G28U, A29C, C31A
DNA 1: CAATCTGAATTCCGGTCTCCC
DNA 2: TGGTGGCTACGACGGGATT
B17: UUUCCGG (DNA:RNA)
RNA: B2 RNA with C25U, A26U, G28C, A29C, C30G, C31G
DNA 1: CAATCTGAATTCCGGTCTCCC
DNA 2: TGGTGGCTACGACGGGATT
B18: ACUUACG (DNA:RNA)
RNA: B2 RNA with C25A, A26C, G28U, C31G
DNA 1: CAATCTGAATTCCGGTCTCCC
DNA 2: TGGTGGCTACGACGGGATT
B19: UCCCAGU (DNA:RNA)
RNA: B1 RNA with G25U, G27C, U28C, G29A, A30G
DNA 1: CAATCTGAATTCCGGTCTCCC
DNA 2: TGGTGGCTACGACGGGATT
B20: UUCAAGU (DNA:RNA)
RNA: B2 RNA with C25U, A26U, U27C, G28A, C30G, C31U
DNA 1: CAATCTGAATTCCGGTCTCCC
DNA 2: TGGTGGCTACGACGGGATT

biological target: T1, RBFOX1 RRM; experiment: EMSA; HiTS-Eq, 1 nM pool, 10 min; buffer printed only for the single-RNA assays: 10 mM Tris pH 7.5, 150 mM NaCl, 3.4 mM EDTA, 0.001% NP-40, 30 C; settings: tags: His6 N-terminal (pET28a); label: 5' 32P
In short: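 Relative association constants, normalised to the cognate motif, were derived by comparing read counts of each RNA species with those of the control reaction. The RNA sequenced was the free fraction, separated by 8% native PAGE after a 10 min equilibration in 50 µL of 1 nM 5′-radiolabelled RNA (7 randomized nucleotides) with increasing concentrations of purified wild-type or mutant RbFox RRM.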

Binder	binding signal
B1	0.0148 KA relative to UGCAUGU
B2	0.00439 KA relative to UGCAUGU
B3	0.0152 KA relative to UGCAUGU
B4	0.00238 KA relative to UGCAUGU
B5	0.00592 KA relative to UGCAUGU
B6	0.00769 KA relative to UGCAUGU
B7	0.00308 KA relative to UGCAUGU
B8	0.00639 KA relative to UGCAUGU
B9	0.00809 KA relative to UGCAUGU
B10	0.00949 KA relative to UGCAUGU
B11	0.00133 KA relative to UGCAUGU
B12	0.0119 KA relative to UGCAUGU
B13	0.00363 KA relative to UGCAUGU
B14	0.0199 KA relative to UGCAUGU
B15	0.0255 KA relative to UGCAUGU
B16	0.0128 KA relative to UGCAUGU
B17	0.00356 KA relative to UGCAUGU
B18	0.00679 KA relative to UGCAUGU
B19	0.000725 KA relative to UGCAUGU
B20	0.0099 KA relative to UGCAUGU
